Reference: PubChem BioAssay AID1508623 (National Center for Advancing Translational Sciences (NCATS), 2021)
Among all 48,000 compounds or so, about 450 (0.94%) were called active. Inconclusive means that the source gave no clear call. Such entries were picked first, then a sample of the others. The call rests on the fitted dose curve; in most records, active means well fitted inhibition curve with a large enough effect; inconclusive means small, poorly fitted or top-dose-only effect; inactive means no such curve, though single readings can be large or run the other way. Potencies of inconclusive entries are doubtful fits and often do not repeat.

Assay: Primary qHTS for Identification of Small Molecule Inhibitors of Huntingtin Promoter Activity; further: nearly all actives have a fitted effect of over 50% in size
Settings: HEK293 HTT promoter firefly luciferase reporter (activity 0% = vehicle and -100% = no light), 24 h; activity change, negative = inhibition: at 57.5 µM (top of the series)
Summary of the method: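 Luminescence was read after Dual-Glo reagent and a 10 min room-temperature incubation. Values were normalized to vehicle (0% activity) and zero RLU (-100% activity). Reporter HEK293 cells had been exposed to compounds (up to 57.5 uM final) for 24 h.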
Potency means the concentration at half of the fitted maximal effect; tags describe the fitted curve by direction and shape.

| SMILES | Potency | activity change, negative = inhibition |
| --- | --- | --- |
| O=C(Nc1cccc(F)c1)c1cnc2sc(N3CCCC3)nn2c1=O | inconclusive: 4.47 µM [inhibitor, full curve, poor fit] | – |
| CCOC(=O)c1ccc(N2C(=O)c3n[nH]c(-c4ccco4)c3C2c2ccccc2OC)cc1 (stereo not drawn) | inconclusive: 39.8 µM [inhibitor, single point] | – |
| COc1ccc(N(C)S(=O)(=O)c2ccc3c(c2)CCN3C(=O)CCC(=O)O)cc1 | – | inactive: -12.2% |
| CC(C)(Cc1ccc2ccccc2c1)NC[C@@H](O)COc1cccc(Cl)c1C#N | – | inactive: 8.11% |
| Cc1ccc(CNC(=O)c2ccc3c(c2)c(C)c(C)n3Cc2ccc(Cl)cc2)o1 | inconclusive: 28.2 µM [inhibitor, single point] | – |
| Cc1ccc(-c2noc(-c3ccc(N4CCCC4)c([N+](=O)[O-])c3)n2)cc1 | inconclusive: 15.8 µM [inhibitor, partial curve, poor fit] | – |
| COc1cccc(NS(=O)(=O)c2ccc3[nH]cc(C(=O)NC(C)c4ccccc4)c(=O)c3c2)c1 (stereo not drawn) | inconclusive: 39.8 µM [inhibitor, single point] | – |
| Cc1cc(Nc2ncnc3ccc(-c4ccc(CNCCS(C)(=O)=O)o4)cc23)ccc1Oc1ccn2ncnc2c1 | inconclusive: 17.2 µM [inhibitor, partial curve] | – |
| Cc1cccc(NC(=O)c2cn(-c3ccccc3)nc2-c2ccccc2)c1C | inconclusive: 39.8 µM [inhibitor, single point] | – |
| CO[C@@]12[C@H](COC(N)=O)C3=C(C(=O)C(C)=C(N)C3=O)N1C[C@@H]1N[C@@H]12 | inconclusive: 38.5 µM [inhibitor, partial curve, poor fit] | – |
| CCOc1ccc(C(=O)Nc2ccc3nc(N(CC)CC)cc(C)c3c2)cc1 | inconclusive: 28.2 µM [inhibitor, single point] | – |
| Cn1c(=O)oc2cc(S(=O)(=O)NC(Cc3ccccc3)C(=O)Nc3ccc(F)c(Cl)c3)ccc21 (stereo not drawn) | – | inactive: -21.7% |
| CCOc1cccc2sc(NC(=O)c3ccc(S(=O)(=O)N4CCCCC4C)cc3)nc12 (stereo not drawn) | inconclusive: 20 µM [inhibitor, partial curve] | – |
| O=C(c1cc(-c2ccc(Cl)cc2)n[nH]1)N1CCN(S(=O)(=O)c2ccc(Br)s2)CC1 | inconclusive: 28.2 µM [inhibitor, single point] | – |
| CCOC(=O)c1c(C)[nH]c(C)c1S(=O)(=O)N1CCN(c2cc(Cl)ccc2C)CC1 | inconclusive: 28.2 µM [inhibitor, single point] | – |
| Clc1ccccc1Cn1c(-c2cccs2)nc2ccccc21 | inconclusive: 25.1 µM [inhibitor, partial curve, poor fit] | – |
| COc1ccc(-c2nc3ccccc3o2)cc1NC(=O)c1cccnc1 | – | inactive: -4.76% |
| COc1ccc(CCNC(=O)c2ccc3c(c2)N=C(C)c2ccccc2S3)cc1OC | inconclusive: 28.2 µM [inhibitor, partial curve, poor fit] | – |
| CCN(CC)CCCNC(=O)c1ccc2c(c1)sc1nc(-c3ccc(C)cc3)cn12 | – | inactive: -2.62% |
| COc1ccc(NC(=O)NC(C)c2c(-n3cccc3)sc(C)c2C)cc1OC (stereo not drawn) | inconclusive: 35.5 µM [inhibitor, single point] | – |

| SMILES | Potency | activity change, negative = inhibition |
| --- | --- | --- |
| COc1ccc(-c2cc3nc(C)c(CCC(=O)Nc4ccccc4C(C)=O)c(C)n3n2)c(OC)c1 | active: 14.1 µM | – |
| O=C(CCC1N=C2c3ccccc3N=C(SCc3ccc(F)cc3)N2C1=O)NCc1ccc(F)cc1 (stereo not drawn) | inconclusive: 39.8 µM [inhibitor, single point] | – |
| CCCC1=Nc2cc(C(=O)NCc3ccc(OC)cc3)ccc2Sc2ccc(C)cc21 | inconclusive: 15.8 µM [inhibitor, partial curve, poor fit] | – |
| Cc1nc2scc(C)n2c(=O)c1S(=O)(=O)Nc1ccc(N2CCOCC2)c(Cl)c1 | inconclusive: 2.24 µM [inhibitor, full curve] | – |
| CCC(C(=O)Nc1cc(OC)cc(OC)c1)n1nc(-c2ccc(C)c(C)c2)ccc1=O (stereo not drawn) | inconclusive: 22.4 µM [inhibitor, partial curve, poor fit] | – |
| CCOc1ccc(-c2nc(CSCC(=O)N3CCN(c4ccc(F)cc4)CC3)c(C)o2)cc1 | – | inactive: -17.1% |
| CN1CCc2c(sc3c2C(=O)NC(c2ccc(OC(=O)c4ccc(C(C)(C)C)cc4)cc2)N3)C1 (stereo not drawn) | inconclusive: 31.6 µM [inhibitor, partial curve, poor fit] | – |
| Cc1ccc(C)c(N2CCN(C(=O)C3CCN(c4nc5ccc(C)cc5[nH]4)CC3)CC2)c1 | inconclusive: 28.2 µM [inhibitor, single point] | – |
| Cc1cc(-c2ccc(C)c(S(=O)(=O)N3CCN(c4cccc(C(F)(F)F)c4)CC3)c2)on1 | inconclusive: 14.1 µM [inhibitor, partial curve, poor fit] | – |
| CC(=O)N1CCCc2cc(S(=O)(=O)N3CCC(C(=O)Nc4cccc(Cl)c4C)CC3)ccc21 | inconclusive: 25.1 µM [inhibitor, single point] | – |
| CCOC(CN1C(=O)[C@](CC(=O)Nc2ccc(C)cc2)(NC(=O)Nc2ccc(C)cc2)c2ccccc21)OCC | inconclusive: 43.2 µM [inhibitor, single point] | – |
| COc1ccc(N2CCN(C(=O)CCn3nc(C)c(S(=O)(=O)N4CCCC4)c3C)CC2)cc1 | inconclusive: 17.8 µM [inhibitor, partial curve, poor fit] | – |
| CCN(CC)CCCNC(=O)c1ccc(-c2nc(CN3CCc4ccccc43)c(C)o2)cc1 | – | inactive: -26.4% |
| COC(=O)c1cc(S(=O)(=O)N2CCN(c3cccc(C)c3)C(C)C2)cn1C (stereo not drawn) | – | inactive: -12.9% |
| CCc1ccc(-n2cnc3cc(C(=O)NCc4ccc(C)cc4)ccc32)cc1 | inconclusive: 39.8 µM [inhibitor, single point] | – |
| CCOC(=O)c1c(C)[nH]c(CCC(=O)NCc2ccc(CC)cc2)c1C | inconclusive: 39.8 µM [inhibitor, single point] | – |
| Cc1ccc(-n2ncc(C(=O)NCc3cccs3)c2C2CCN(C(=O)OC(C)(C)C)CC2)c(C)c1 | inconclusive: 22.4 µM [inhibitor, partial curve, poor fit] | – |
| Cc1ccc(C2c3[nH]c4ccccc4c3CCN2C(=O)c2cccc(C)c2)cc1 (stereo not drawn) | inconclusive: 15.8 µM [inhibitor, single point] | – |
| CCOC(=O)c1c(C)[nH]c(CCC(=O)Nc2ccc(C)c(F)c2)c1C | inconclusive: 39.8 µM [inhibitor, single point] | – |
| Cc1nc(Oc2ccc(F)cc2Cl)c2oc3ccccc3c2n1 | inconclusive: 39.8 µM [inhibitor, single point] | – |

| SMILES | Potency | activity change, negative = inhibition |
| --- | --- | --- |
| O=C(Nc1sc2c(c1C(=O)NCc1ccco1)CCCC2)c1cc(=O)c2ccccc2o1 | inconclusive: 0.562 µM [inhibitor, full curve, poor fit] | – |
| CCc1ccc(CN(Cc2ccco2)c2cnc(S(C)(=O)=O)nc2C(=O)Nc2ccccc2Cl)cc1 | inconclusive: 35.5 µM [inhibitor, partial curve, poor fit] | – |
| Fc1ccc(Nc2c3c(nc4ccccc24)CCC3)cc1 | inconclusive: 28.2 µM [inhibitor, partial curve, poor fit] | – |
| O=C(NCc1ccco1)c1ccc2c(c1)N(Cc1ccc(Cl)cc1)C(=O)c1ccccc1S2=O (stereo not drawn) | inconclusive: 31.6 µM [inhibitor, partial curve, poor fit] | – |
| Cc1ccc(NC(=O)Nc2ccc3snnc3c2)cc1C | – | inactive: -7.08% |
| CCN(C(=O)C1CCCN(S(=O)(=O)c2c(C)noc2/C=C/N(C)C)C1)c1cccc(C)c1 (stereo not drawn) | inconclusive: 35.5 µM [inhibitor, partial curve, poor fit] | – |
| COc1cc(C(=O)Nc2ccc3nc(SCc4ccccc4)sc3c2)cc(OC)c1OC | inconclusive: 31.6 µM [inhibitor, single point] | – |
| Cc1ccc(C(=O)NCC(c2cccs2)S(=O)(=O)c2cccs2)cc1 (stereo not drawn) | inconclusive: 25.1 µM [inhibitor, single point] | – |
| CCC(Sc1nncn2c1cc1occc12)C(=O)Nc1ccc(C)c(Cl)c1 (stereo not drawn) | – | inactive: -21.5% |
| CCOc1ccc(OCC)c(NC(=O)CN(C)S(=O)(=O)c2ccc3c(c2)CCCC(=O)N3)c1 | inconclusive: 20 µM [inhibitor, partial curve, poor fit] | – |
| COc1ccc(N2CCN(C(=O)c3nc(SC)ncc3Cl)CC2)cc1 | – | inactive: -21.2% |
| COc1ccc(C(C)C)cc1S(=O)(=O)NCCc1c(C)[nH]c2ccc(C)cc12 | inconclusive: 39.8 µM [inhibitor, single point] | – |
| COc1ccc(OC)c(CNC(=O)Cc2ccc(NC(=O)N3CCCCc4ccccc43)cc2)c1 | inconclusive: 31.6 µM [inhibitor, single point] | – |
| COc1ccc(-c2cc(-c3ccccc3)nc(SCC(=O)CC(=O)OC(C)C)c2C#N)cc1 | inconclusive: 31.6 µM [inhibitor, single point] | – |
| O=C(NCC(c1cccnc1)N1CCc2ccccc21)c1cccc(C(F)(F)F)c1 (stereo not drawn) | inconclusive: 31.6 µM [inhibitor, single point] | – |
| O=C(NCc1cccc(Cl)c1)C1CCN(C(=O)c2sccc2-n2cccc2)CC1 | inconclusive: 31.6 µM [inhibitor, single point] | – |
| CC(=O)N1CCC(N(C(=O)Nc2c(F)cccc2F)C(C)C)CC1 | inconclusive: 25.1 µM [inhibitor, partial curve] | – |
| CCc1ccc(-n2nc(C)c3c(C(=O)Nc4cc(OC)cc(OC)c4)cc(C)nc32)cc1 | inconclusive: 39.8 µM [inhibitor, single point] | – |
